We go through 43 compounds from paper PMC4336329 (PLoS ONE, 2015).

Hit rate of the full screen: of about 310,000 compounds, about 2,200 (0.71%) showed an effect of 50% or more. The effect is printed as a negative number. The list shows a part of the results.

Chain of human ether-à-go-go-related gene (hERG) potassium channel (Q12809 whole entry, looked up): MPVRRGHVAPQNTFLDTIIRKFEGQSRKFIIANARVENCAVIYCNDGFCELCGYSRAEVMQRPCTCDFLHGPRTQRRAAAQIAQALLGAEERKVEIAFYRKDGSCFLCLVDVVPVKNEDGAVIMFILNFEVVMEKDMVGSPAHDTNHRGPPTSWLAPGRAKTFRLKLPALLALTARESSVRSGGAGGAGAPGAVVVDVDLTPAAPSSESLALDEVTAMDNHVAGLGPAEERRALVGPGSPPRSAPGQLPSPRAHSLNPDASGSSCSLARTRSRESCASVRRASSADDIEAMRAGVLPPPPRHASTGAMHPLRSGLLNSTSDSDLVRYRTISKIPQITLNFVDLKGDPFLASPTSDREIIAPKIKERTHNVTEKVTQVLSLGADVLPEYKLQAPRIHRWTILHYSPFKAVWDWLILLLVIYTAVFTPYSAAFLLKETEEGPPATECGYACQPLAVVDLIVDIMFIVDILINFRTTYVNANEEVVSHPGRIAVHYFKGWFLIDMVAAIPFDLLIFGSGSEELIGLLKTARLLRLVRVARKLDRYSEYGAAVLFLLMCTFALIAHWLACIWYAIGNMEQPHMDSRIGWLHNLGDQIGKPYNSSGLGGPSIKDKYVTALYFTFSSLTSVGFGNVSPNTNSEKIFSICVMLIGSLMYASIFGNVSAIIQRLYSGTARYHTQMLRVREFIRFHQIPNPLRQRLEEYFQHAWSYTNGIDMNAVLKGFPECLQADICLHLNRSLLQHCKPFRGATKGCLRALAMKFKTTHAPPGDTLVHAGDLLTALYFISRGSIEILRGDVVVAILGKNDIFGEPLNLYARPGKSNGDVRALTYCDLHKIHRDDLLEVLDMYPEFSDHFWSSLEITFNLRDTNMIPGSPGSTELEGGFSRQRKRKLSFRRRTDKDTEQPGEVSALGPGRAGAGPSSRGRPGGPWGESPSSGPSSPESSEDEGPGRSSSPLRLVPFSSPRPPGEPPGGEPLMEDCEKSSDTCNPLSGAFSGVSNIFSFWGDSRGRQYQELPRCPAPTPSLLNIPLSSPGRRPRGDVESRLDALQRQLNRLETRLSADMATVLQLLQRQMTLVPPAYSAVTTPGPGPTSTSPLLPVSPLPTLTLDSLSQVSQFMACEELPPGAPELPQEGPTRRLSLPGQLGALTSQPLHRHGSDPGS

This test addresses human ether-à-go-go-related gene (hERG) potassium channel (human, UniProt Q12809). As to the kind of experiment: primary screen, population patch clamp on CHO cells stably expressing hERG.
Consider `CCCc1nc2nc(C)c(NS(=O)(=O)c3ccc(C4CCCCC4)cc3)c(=O)n2[nH]1`, for which the “hERG current change (%, negative = inhibition) at 1uM” value was 12%.
In the case of `O=C(CN1CCN(Cc2ccccc2)CC1)NCCc1ccccc1` it was 12.5%.
With `COc1ccc(/C=C/C(=O)OC2CCCCC2CN(C)C)cc1.Cl` (stereo not shown), the “hERG current change (%, negative = inhibition) at 1uM” value is on record as 5.67%.
In the case of `C/C(CC(=O)Nc1ccc([N+](=O)[O-])cc1)=N\NC(=O)c1ccccc1O` it was 12%; in that of `CCOc1ccc(N(Cc2cc3ccc(C)cc3[nH]c2=O)C(=O)COC)cc1`, 2.08%; in that of `Cc1ccccc1NC(=S)NC(C)C(c1cccs1)N1CCOCC1` (stereo not shown), 11.4%.
In the case of `CC1CN(CC(=O)N2CCc3[nH]c4ccccc4c3C2)CC(C)O1` (stereo not shown) it was 8.25%.
Take `CCN(CC)C(=O)CSc1nc2cc3c(cc2c(=O)n1CCCCCC(=O)NCc1ccc(OC)cc1)OCO3`: the “hERG current change (%, negative = inhibition) at 1uM” value is reported as 11.2%.
For `Cc1ccc(C)c(NC(=O)CSc2nnc(CSc3nc(C)cc(C)n3)n2Cc2ccco2)c1` the value was 1.82%; for `Cc1cccc(C)c1-n1cccc1/C=C1\SC(=S)N(c2cccc(C(=O)O)c2)C1=O`, 21.2%; for `CN1CCN(c2nc(-c3ccccc3)cc(C(F)(F)F)n2)CC1`, 1.65%.
`CCN(CC(=O)NCC(=O)Nc1ccc(Br)cc1C)Cc1ccccc1`: the “hERG current change (%, negative = inhibition) at 1uM” value turned out to be 9.05%.
In the case of `O=C1c2ccccc2C(=O)N1CCCCSc1nc2ccccc2o1`, the “hERG current change (%, negative = inhibition) at 1uM” value is listed as 5.52%.
`O=C1CN(C(=O)c2ccc(Cl)c(S(=O)(=O)N3CCc4ccccc43)c2)c2ccccc2N1`: the “hERG current change (%, negative = inhibition) at 1uM” value is on record as -2.69%.
For the compound `O=C(O)c1cccc2c1/C(=N/Nc1ccc([N+](=O)[O-])cc1[N+](=O)[O-])c1ccccc1-2`, the “hERG current change (%, negative = inhibition) at 1uM” value came to 17.2%.
In the case of `OCC1(CCc2ccccc2)CCN(Cc2cc(Cl)ccc2O)CC1` it was -5.01%; in that of `Cc1ccc(NC(=O)N2CCc3ccccc32)cc1`, 10.6%.
In the case of `COc1ccccc1C1c2[nH]c3ccccc3c2C[C@H]2C(=O)N(C3CCN(Cc4ccccc4)CC3)CC(=O)N12` (stereo partly shown) it was 1.62%; in that of `COc1ccc2[nH]c(=O)c(C3c4cc(OC)c(OC)cc4CCN3C(=O)c3ccco3)cc2c1` (stereo not shown), 7.6%.
For the compound `O=C(NCc1ccc(Cl)cc1)C1CCCN(C(=O)c2ccc(Cl)cc2)C1` (stereo not shown), the “hERG current change (%, negative = inhibition) at 1uM” value came to 0.75%.
For `O=S(=O)(Nc1ncccn1)c1ccc(NC(=S)Nc2cccc(Cl)c2)cc1` the value was 13.2%.
In the case of `Cc1cc(O)cc(=O)n1C` it was 8.9%; in that of `Cc1nnc(SC(C)C(=O)NCC2CCCO2)n1-c1ccccc1` (stereo not shown), 3.76%.
On to `COc1ccc(C(=O)N2CCOC2CNC(=O)C(=O)NCc2ccccc2Cl)cc1` (stereo not shown), for which the “hERG current change (%, negative = inhibition) at 1uM” value was found to be 11.8%.
With `Br.COc1ccc(C(=O)Cn2c(NCCCO)nc3ccccc32)cc1OC`, the “hERG current change (%, negative = inhibition) at 1uM” value was 8.36%.
For `CN(C)CC(=O)Nc1ccc(Oc2ccc(Cl)cc2)cc1.Cl` the value was 13.9%.
As for `O=C(CCN1C(=O)/C(=C/c2ccc(Cl)cc2)SC1=S)NCCCn1ccnc1`, the “hERG current change (%, negative = inhibition) at 1uM” value is 13.2%.
In the case of `Cc1nnc(N(Cc2ccccc2)C(=O)c2cnccn2)s1` it was 13.6%; in that of `C=CCn1c(SCc2ccc(Cl)cc2)nc2cc(C(=O)N3CCC(C(N)=O)CC3)ccc2c1=O`, 8.65%.
Take `O=[N+]([O-])c1ccc(Sc2ccccn2)nc1`: the “hERG current change (%, negative = inhibition) at 1uM” value worked out at 13.3%.
In the case of `COc1ccccc1CN1CC(C(=O)N(C)CCCn2nc(C)cc2C)CCC1=O` (stereo not shown) it was 3.08%; in that of `Cc1ccc(S(=O)(=O)N2CCOCC2)cc1NC(=O)c1cc2c(s1)CCC2`, -1.73%.
On to `COc1cccc(Nc2c3c(nc4c(-c5ccccc5)c(C)nn24)CCC3)c1`, for which the “hERG current change (%, negative = inhibition) at 1uM” value is on record as -5.67%.
In the case of `CCc1c(O)nc(SCC(=O)Nc2cc(C)on2)n(-c2ccccc2)c1=O` it was 8.66%.
On to `N#CCC(=O)Nc1sc2c(c1C(N)=O)CCCC2`, for which the “hERG current change (%, negative = inhibition) at 1uM” value came out at 5.9%.
Consider `O=C(NCCc1ccc(F)cc1)Nc1ccc([N+](=O)[O-])cc1`, for which the “hERG current change (%, negative = inhibition) at 1uM” value is listed as 6.86%.
In the case of `N#Cc1cccc(C(=O)OCC(=O)c2ccc3c(c2)NC(=O)CO3)c1` it was 10.8%; in that of `Cc1c(CC(=O)O)c(=O)oc2cc(OCc3ccc(Br)cc3)ccc12`, 13.3%; in that of `CN(C)S(=O)(=O)c1cccc(NC(=O)COC(=O)c2ccc3c(c2)OCO3)c1`, 4.46%.
`COc1ccc(/C=C/C(=O)Nc2ccccc2C(F)(F)F)cc1OC`: the “hERG current change (%, negative = inhibition) at 1uM” value was determined as 2.69%.
For `Cc1cc(C)cc(NC(=O)CN2CCN(c3ncccn3)CC2)c1` the value was 0.335%; for `O=C(NCc1ccccc1Cl)c1ccc(S(=O)(=O)N2CCCC2)cc1`, 9.13%.
Regarding `COc1ccc(C(=O)Nc2sc3c(c2C(=O)NCc2ccco2)CCCC3)cc1OC`, the “hERG current change (%, negative = inhibition) at 1uM” value is listed as -7.05%.
